Among the data in ChEMBL document CHEMBL1157539, “Thousands of chemical starting points for antimalarial lead identification” (Nature, 2010) are IFI values, retold here.

Several values for one entry are separate records, joined by “and”; a condition that tells them apart may be missing. Identical values can stand only once. Whole data set: some 13,000 compounds, median “IFI” near 4, cut for the highest 2% near 17. The list shows a part of the results.

The assay can be described thus: GSK_TCMDC: Inhibition Frequency Index (IFI). The number of non-kinase HTS assays where a compound showed > 50 % inhibition, expressed as a percentage of the number of such assays in which the compound was tested (-0 is zero). Type of assay: functional.
As to `Oc1ccc(CCNc2nc(NCc3cccc(OCc4cccc(F)c4)c3)nc(N3CCNCC3)n2)cc1`, the IFI stood at 14.3%.

With `N#CC(CC(=O)c1ccc(Cl)cc1)c1cccc(F)c1` (stereo unspecified), the IFI turned out to be 0.69%. The value for `CCCNCc1ccc(-c2ccc(CN(CCOC)C(=O)c3ccccc3)cc2)nc1` was 0.75%; that for `Cc1cc2nc(-c3cc(Br)ccc3O)c(-c3cc(Br)ccc3O)nc2cc1C` was 0%.

Regarding `O=C(NCCN1Cc2ccccc2C1=O)c1ccc(Oc2ccc(C(=O)NCCN3Cc4ccccc4C3=O)cc2)cc1`, the IFI turned out to be 2.88%.

`CCCCC(=O)Nc1ccc(Nc2nc(C)cc(N3CCCC3)n2)cc1`: the IFI stood at 7.14%. The compound `O=c1cc(NCCCNCc2cccc(C(F)(F)F)c2Cl)[nH]c2ccccc12` showed an IFI of 0.72%. Consider `NC1=NC(c2ccccc2)(c2cccc(O)c2)C(=O)N1CCCc1ccccc1` (stereo unspecified), for which the IFI was 1.75% and 13.6%. Take `CCn1c(C=Cc2cc(Br)ccc2O)nc2ccccc2c1=O`: the IFI came to 3.55%. In turn, `CS(=O)(=O)CCNCc1ccc(-c2ccc3ncnc(Nc4ccc(OCc5ccccc5)c(Cl)c4)c3c2)o1` gave an IFI of 3.47%. The figure for `CCc1ccc2c(c1O)CCN(C)C2Cc1ccccc1Cl` (stereo unspecified) is 1.44%; for `Cc1cc(=NN=Cc2ccccc2F)c2cccc(C)c2[nH]1` it is 1.48%. The figure for `CC(=O)NCCCCC1NC2(C(=O)N(Cc3ccc(C(C)(C)C)cc3)c3ccccc32)C2C(=O)N(C3CCCCC3)C(=O)C12` (stereo unspecified) is 2.9%. The value for `Cc1ccccc1Nc1nc(NCCc2ccccc2)nc2ccccc12` was 5.19%.

As to `Cc1sc(C)c(CNCCCNc2cc(=O)c3ccccc3[nH]2)c1Br`, the IFI was found to be 2.88%.

`CC1CCCN(Cc2cc(Cl)cc(Cl)c2O)C1` (stereo unspecified) displayed an IFI of 1.2%. The value for `C=Cc1sc(CNCCCNc2cc(=O)c3ccccc3[nH]2)c(C)c1Br` was 4.51%. The compound `c1cc(CN2CCCCC2)cc(-c2ccc(-c3nc4ccccc4[nH]3)cc2)c1` had an IFI of -0%.

For the compound `COc1cc2nc(N3CCC(CNC(=O)c4ccc(-c5ccc(C(=O)N(C)C)cc5)cc4)CC3)nc(N)c2cc1OC`, the IFI was determined as 6.48%.

`COc1ccc(NC(=O)/C=C/c2ccccc2Cl)cc1OCCN1CCC(N2CCN(C)CC2)CC1` returned an IFI of 4.23%.

Compound `CN1CCC(NC(=O)c2cc(Oc3ccc4c(c3)CCN4C(=O)Nc3cccc(C(F)(F)F)c3)ccn2)CC1` registered an IFI of 4.96%. Compound `CN(C)CCN(C)Cc1ccc(-c2ccc(NS(=O)(=O)c3cccc4cccnc34)cc2)cc1` returned an IFI of 5.79%.

As to `O=C(NC1CCN(Cc2ccsc2)CC1)c1ccc(-c2cccc(C(F)(F)F)c2)s1`, the IFI was 16.7%. The figure for `Nc1nc(N)c2cc(Cc3ccccc3Cl)cnc2n1` is 0.85%.

`CCc1cc(CNC2CCN(CCc3c(F)cnc4ccc(OC)nc34)CC2)cc2c1OCCO2` had an IFI of 6.8%. `Cc1cccc2nc(-c3cccc(-c4cccc(NC(=O)c5cnn6cccnc56)c4)c3)[nH]c12` displayed an IFI of 3.88%. Compound `CS(=O)(=O)CCNCc1nc(-c2ccc3ncnc(Nc4ccc(OCc5ccccc5)c(Cl)c4)c3c2)cs1` returned an IFI of 3.68%. The value for `CCC(C)(CC)C(=O)n1ncc2c3c(N)nc(N)nc3ccc21` was 5.97%. The figure for `CCCNCc1ccc(-c2ccc(CN(CC3CCCO3)C(=O)COc3ccccc3Cl)cc2)nc1` (stereo unspecified) is 1.5%; for `CN(C)CCOc1ccc(N2CCN(CCCCNC(=O)c3ccc(/C=C/c4cc(Cl)cc(Cl)c4)cc3)CC2)cc1` it is 5.36%.

On to `CCN(CC)CCN(Cc1ccc(-c2ccc(C(F)(F)F)cc2)cc1)C(=O)Cn1c(SCc2ccc(F)cc2)cc(=O)c2ccccc21`, for which the IFI turned out to be 7.64%. The figure for `CNCc1ccc(CN(C)c2nc(N)c3cc(OC)c(OC)cc3n2)cc1` is -0%; for `N=C(N)NN=Cc1ccc2c(ccc3ccccc32)c1` it is 3.73%. For the compound `COc1cc2c(cc1S(=O)(=O)c1ccc(NC(=O)c3ccc4ccccc4c3)cc1)CCN(C)CC2`, the IFI turned out to be 5.17%. As for `CN(C(=O)c1snnc1-c1ccccc1)C1CCN(CCCCCNC(=O)/C=C/c2ccc(Cl)c(Cl)c2)CC1`, the IFI is 9.42%. In turn, `CN1CCN(c2ccnc3ccc(NC(=O)Nc4cccc5c(C#N)cccc45)cc23)CC1` had an IFI of 0%. The value for `COc1cc(NC(=O)CCCCCCCCN2CCN(C)CC2)c2ncccc2c1` was 1.5%; that for `CN1c2ccccc2Sc2cc(CNCCSCCNCc3ccc4c(c3)Sc3ccccc3N4C)ccc21` was 5.71%. The compound `O=C(Nc1ccc(Cn2ncc(N3CCCNCC3)c(Cl)c2=O)cc1)Nc1ccc(F)cc1[N+](=O)[O-]` yielded an IFI of 1.37%.

Turning to `N#Cc1c(N)nc(SCC(=O)Nc2cc(C(F)(F)F)ccc2Cl)c(C#N)c1-c1cccs1`, the IFI came to 2.67%. The figure for `O=C(/C=C/c1ccc(Cl)c(Cl)c1)NCCCCCN1CCC(NC(=O)Nc2ccc(F)c(F)c2)CC1` is 6.67%; for `N#Cc1cccc(CN2CCCN(Cc3ccc(C(=O)Nc4ccc(Cl)cc4)cc3)CC2)c1` it is 7.87%; for `COc1ccc(-c2ccc(CNC(=O)c3ccc(C#N)cc3)c(F)c2)cc1CN1CCCN(C)CC1` it is 5%.

`COc1ccc(NC(=O)Nc2ccc(Nc3nc(C)cc(N(C)C)n3)cc2)cc1` yielded an IFI of 5.88%. The value for `O=C(Nc1ccccc1)c1ccc(-c2cc3ccncc3cc2OC2CCNCC2)s1` was 7.89%; that for `Cc1cc2[nH]c(-c3ccc(C(=O)NCCCN4CCN(c5cccc(Cl)c5)CC4)cc3)nc2cc1Cl` was 0.78%. The value for `O=C1NC(c2ccc(N3CCCCCC3)cc2)Nc2ccccc21` (stereo unspecified) was 5.36%.

Compound `CO/C(=C\C=C/c1cc2cc(Cl)c(Cl)cc2[nH]1)C(=O)NC1CC(C)(C)N(C)C(C)(C)C1` registered an IFI of 12.9%. The value for `Nc1nc2c(cnn2CCCCCCCP(=O)(O)O)c(=O)[nH]1` was -0%; that for `NCc1ccc(CNCc2ccc(-c3ccc(-c4nc5cc(C(F)(F)F)ccc5[nH]4)s3)cc2)cc1` was 16.8%; that for `COC(=O)c1c(C#N)c(OC)cc(O)c1CSC[C@H](Nc1nc(-c2ccc([N+](=O)[O-])cc2)cs1)C(=O)NCCN1CCCCC1` was 2.38%. The value for `Cn1ncc2c3c(CCN4CCC(NCc5cc6c(cn5)OCCO6)CC4)c(Cl)cnc3ccc21` was 5.22%; that for `COCCCNC(=N)c1ccc(NC(=O)c2ccc(C(=O)Nc3ccc(C(=N)NCCCOC)cc3)cc2)cc1` was 2.21%; that for `CCCCCCCc1c(C)[nH]c2ccc(F)cc2c1=O` was 0.84%. The value for `CO/C(=C\C=C\c1cc2cc(Cl)c(Cl)cc2[nH]1)C(=O)NCCCN1CCN(c2cccc(OC)c2)CC1` was 10.6%.

In turn, `N=C1NC(c2ccccc2)(c2ccccc2)C(=O)N1C1CCCCC1` yielded an IFI of 4.85%. The figure for `CCCCCCOc1ccc(C(=O)N(Cc2ccccc2)c2c(-c3ccccc3)nc3cc(C)ccn23)cc1` is 4.73%; for `O=C(Nc1cccc(CN2CCCN(Cc3ccccc3)CC2)c1)c1ccc(-c2ccccc2)cc1` it is 10.7%; for `O=C(NCCCN1CCC(N2CCCCC2)CC1)C1=Cc2cc(Br)ccc2OC1` it is 11.4%. Compound `Cc1cccc2nc(-c3cccc(-c4cccc(NC(=O)C5CC(=O)Nc6ccccc65)c4)c3)[nH]c12` (stereo unspecified) came in with an IFI of 2.61%.

In turn, `Cc1cc(CNCC2CCC(CNCCCc3ccccc3)CC2)ccc1O` (stereo unspecified) registered an IFI of 2.21%.

With `C=CCOc1ccc(C(=O)Nc2nonc2-c2ccc(OC)c(OC)c2)cc1`, the IFI is 3.08%. `Fc1ccc(CN2CCN(c3ncnc4cc(-c5ccccc5)sc34)CC2)cc1` yielded an IFI of 11.5%. As to `CO/C(=C\C=C\c1cc2cc(Cl)c(Cl)cc2[nH]1)C(=O)NCCCN1CC(C)N(C)CC1C` (stereo unspecified), the IFI stood at 11.4%. The figure for `Cc1ccc2nc3ccccc3c(NCCN3CCN(C)CC3)c2c1` is 2.96%; for `O=C(Nc1ccc(-c2cccc(-c3nc4ccccc4[nH]3)c2)cc1)Nc1ccsc1` it is 5.94%; for `CN(C)Cc1ccc(-c2ccc3c(Nc4ccc(Cl)cc4F)ccnc3c2)o1` it is 8.7%. The value for `CS(=O)(=O)Cc1ccc(Nc2nccc(-c3c(-c4cccc(NC(=O)C5CCCCC5)c4)nn4ncccc34)n2)cc1` was 5.76%; that for `Cn1c(=O)n(C)c2cc(CNCCNc3ccnc4cc(Cl)ccc34)ccc21` was -0%. The figure for `CC(=O)c1ccccc1C(=O)N1CCOc2ccc(C(O)C(c3ccccc3)c3ccccc3)cc2C1` (stereo unspecified) is 0%; for `CCCOc1cccc(C(=O)N[C@@H](Cc2ccccc2)[C@H](O)CNCc2ccccc2OC)c1` it is 8.64%. `COc1ccc2c(NN=Cc3ccc(Cl)cc3)ccnc2c1` displayed an IFI of 2.26%. The value for `O=C(N[C@H]1CCN(Cc2ccc(OCCN3CCNCC3)c(Cl)c2)C1)c1ccc(Cl)c(Cl)c1` was 6.67%. The value for `COc1cc(NC(=O)N2CCc3ccc(OCCN(C(C)C)C(C)C)cc32)cc(C(F)(F)F)c1` was 2.9%; that for `CCOC(=O)c1c(NC(=O)c2ccccc2)sc2c(O)c(CN(CC)CC)ccc12` was 2.17%; that for `c1ccc(Oc2ccc(Nc3nc(NCCc4c[nH]cn4)nc(NC4CCCC4)n3)cc2)cc1` was 2.14%.

`NC1CCN(Cc2cccc(-c3csc(-c4nc5ccccc5[nH]4)c3)c2)C1` (stereo unspecified) gave an IFI of 1.37%.

In turn, `CCc1c(C(=O)NC2CCC(N3CCC(c4ccccc4OC)CC3)CC2)[nH]c2ccc(OC)cc12` (stereo unspecified) gave an IFI of 6.45%. The figure for `CCCCCC1c2[nH]c3ccccc3c2CCN1C(=O)OCc1ccccc1` (stereo unspecified) is 3.55%; for `CN1CCN(CCCN(Cc2ccc(-c3ccc(CNCCc4ccccc4)cc3)cc2)C(=O)c2cccs2)CC1` it is 9.03%. Compound `CCCCCCNC(=O)C1Cc2c([nH]c3ccc(C)cc23)C2(CCN(CCc3ccccc3)CC2)N1` (stereo unspecified) gave an IFI of 3.5%. The compound `Cc1cc(=O)oc2c1ccc1oc(C(O)c3ccc(Cl)cc3)c(C)c12` (stereo unspecified) returned an IFI of 2.86%. On to `Cc1c(C)n(C2CCCC2)c2ncnc(OC3CCN(CC(=O)NC4CC4)CC3)c12`, for which the IFI stood at 6.1%. The value for `FC(F)(F)c1ccc2[nH]c(-c3ccc(-c4ccc(CNCC5CCCO5)cc4)cc3)nc2c1` (stereo unspecified) was 5.71%; that for `Fc1ccc2[nH]c(-c3cccc(-c4cccc(CNCCN5CCNCC5)c4)c3)nc2c1` was 7.92%; that for `O=C(NCC(NCCCNc1cc(=O)c2ccccc2[nH]1)c1cc(Br)cc(Br)c1)C1=CCCC1` (stereo unspecified) was 4.58%.

Compound `COc1ccc(Nc2nccc(N3CCC(NC(=O)Nc4ccc5c(c4)OCO5)C3)n2)cc1` (stereo unspecified) showed an IFI of 2.99%.

As to `Cc1nc(-c2ccncc2)sc1C(=O)Nc1ccc(Cl)cc1C(=O)Nc1ccc(Cl)cc1`, the IFI is -0%. The compound `CCOc1cc(C=Cc2nc(O)c3ccccc3n2)cc(Cl)c1O` displayed an IFI of 0%.

With `CCN(CC)CCN(Cc1ccc(-c2ccc(C(F)(F)F)cc2)cc1)C(=O)Cn1c(CCc2cccc(F)c2F)cc(=O)c(C)c1C`, the IFI was found to be 5%. `CC(C)NC(=O)c1cccc(-c2ccc(OCCN3CCCC3c3cc4ccccc4[nH]3)cc2)c1` (stereo unspecified) displayed an IFI of 1.82%.
